Results as given in patent publication US20040242700A1 (priority 2001, published 2004).

Tests used:
[1] = test system: influenza A/Aichi/68 (H3N2) virus; assay type: in vivo, mice
[2] = mice; i.p. twice a day; up to a dose of 30 mg/kg/day
[3] = test system: influenza A/Aichi/68 (H3N2) virus; conditions: infected mice
[4] = test system: influenza A/Aichi/68 (H3N2) virus

Nc1c(Br)cc(Br)cc1CN[C@H]1CC[C@H](O)CC1 [ambroxol, 2-amino-3,5-dibromo-N-[trans-4-hydroxycyclohexyl] benzyl amine]
virus-proliferation (viral titer in BALF) ([1]; 10 mg/kg/day i.p.): significantly inhibited | virus-proliferation-inhibitory effect (viral titer in BALF) ([1]; 30 mg/kg/day i.p., compared with 10 mg/kg/day): inferior to that described above | proliferation of the virus ([1]; ambroxol i.p. twice a day, summary statement): significantly inhibited | toxicity of ambroxol per se [2]: not toxic | pathological changes of the lungs (visual pulmonary lesions) ([3]; 10 mg/kg/day i.p., 4th day from infection): distinctly reduced | lesion-inhibitory effect (visual pulmonary lesions) ([3]; 30 mg/kg/day i.p., 4th day, compared with 10 mg/kg/day): lower than that specified above | surviving rate of the infected mice ([4]; 10 mg/kg/day i.p. twice a day, lethal dose of virus, monitored over 10 days, n=10): a half of the infected mice survived | dose at which the surviving rate reached a peak value ([4]; infected mice, i.p. twice a day): 10 mg/kg/day
